Assay results published in PubChem BioAssay AID1347417 (National Center for Advancing Translational Sciences (NCATS), 2020).
In all, about 120,000 compounds went through this assay and about 5,300 (4.4%) were called active. The shares of active, inactive and inconclusive entries below differ from those in the screen. Calls come from the whole dose curve; as a rule, active = well fitted inhibition curve with a large enough effect; inconclusive = small, poorly fitted or top-dose-only effect; inactive = no such curve, though single readings can be large or run the other way. Potencies beside an inconclusive call are fits to weak or partial responses and may not hold up.

Test: qHTS Primary assay for Inhibitors of Plasmodium falciparum Dd2 growth in vitro; note: nearly all actives have a fitted effect of over 65% in size;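 for activity, negative = inhibition: plate controls were DMSO vehicle for no effect and reference drug for full effect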
Details: P. falciparum Dd2 growth, SYBR Green, 72 h; activity, negative = inhibition: at 28.9 µM (top of the series) unless noted; series mostly up to 28.9 µM
Outline: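 Readout: SYBR Green fluorescence, 485 nm excitation, 535 nm emission, after ~16 h lysis at 37C. Before that, Dd2-infected red cells (2.5% hematocrit) grew 72 h with compound, 29 uM top final concentration.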
Potency is the fitted concentration of half-maximal effect; tags give direction and shape of the fitted curve.

SMILES | Potency | outcome | activity, negative = inhibition
CC(C)c1ccc(NC(=O)c2cc(S(=O)(=O)N(C)C3CCCCC3)ccc2F)cc1 | inconclusive: 7.94 µM [inhibitor, partial curve, poor fit] |  | 
CCCCn1cnc2cc(NCc3ccc(OCC)cc3)ccc21 | inconclusive: 14.1 µM [inhibitor, single point] |  | 
O=C(CCn1c(=O)c2cccn2c2cccnc21)Nc1ccccc1C(F)(F)F | inactive |  | 
CCc1ccc(NC(=O)c2ccc3c(c2)N(C)C2CCCCN2C3=O)cc1 (configuration not stated) | inconclusive: 6.31 µM [inhibitor, partial curve, poor fit] |  | 
c1ccc(-c2nnc3ccc(-c4ccoc4)nn23)nc1 | inactive |  | 
COCC[C@]1(O)CCN(C(=O)c2cc3c(s2)CCCC3)C[C@H]1C | inactive |  | 
Cc1ccc(C(=O)NC2CCN(c3cc(C(F)(F)F)ncn3)CC2)s1 | inactive |  | 
CCN(C(=O)Cn1c(=O)n(-c2ccccc2)c(=O)c2ccc(C(=O)NCc3ccc4c(c3)OCO4)cc21)c1cccc(C)c1 | active: 7.08 µM |  | 
CN1CCN(c2nc3c(c(=O)[nH]2)CCN(Cc2ccc(Cl)c(F)c2)CC3)CC1 |  | inactive [at 5.79 µM] | 
C=CCN1CCN(C(=O)[C@@]23CCCC[C@H]2N(CCC(C)C)C(=O)CC3)CC1 | inconclusive: 8.91 µM [inhibitor, single point] |  | 
COCCN1CCC2(CCC1=O)CN(Cc1cccc(Cl)c1)CCN2C (configuration not stated) | inactive |  | 
Cc1cccc(C(=O)N2C(C(=O)NC3CC3)COC23CCN(C(=O)C(C)(C)C)CC3)c1 (configuration not stated) | inactive |  | 
CCn1nccc1C(=O)N1CCC(N2CC3CC(C2)[C@H]2CCCC(=O)N2C3)CC1 (some centres not stated) | inactive |  | 
O=C1Nc2ccccc2OCC12CCN(Cc1ccc(F)cc1)CC2 | inconclusive: 10 µM [inhibitor, single point] |  | 
CC(C)NC(=O)c1ccc2c(c1)N(C(=O)c1ccc(F)cc1)CC2 | inconclusive: 15.8 µM [inhibitor, single point] |  | 
O=C(COc1ccccc1)N1CCCC(c2nc(C3CCOCC3)no2)C1 (configuration not stated) | inactive |  | 
FC(F)(F)c1cccc(CCC2CCCN(Cc3cccnc3)C2)c1 (configuration not stated) | inconclusive: 3.98 µM [inhibitor, single point] |  | 
COc1ccc(N2CCN(CCCNC(=O)Nc3ccccc3)CC2)cc1 | inactive |  | 
COC(=O)c1sccc1S(=O)(=O)N(CC(=O)NCc1ccc(C)cc1)c1ccc(C)cc1 | inactive |  | 
COc1ccc(-n2c(SCC(=O)NCc3ccc(C)cc3)nc3n[nH]c(C)c3c2=N)cc1 | active: 10 µM |  | 
COc1cccc(C2CCN(Cc3cn(-c4ccccc4)nn3)C2)c1OC (configuration not stated) | active: 12.6 µM |  | 
CCC(c1cccs1)N1C(=O)[C@H]2CN(S(=O)(=O)c3c(C)noc3C)C[C@H]2C1=O (some centres not stated) | inactive |  | 
CC(C)Oc1ccc(CNC(=O)C2(Cc3cccnc3)CCCCC(=O)N2)cc1 (configuration not stated) | inactive |  | 
CN(C)c1nc(-c2ccccc2)nc2c1CCN(C(=O)[C@@H](O)c1ccccc1)C2 | inactive |  | 

SMILES | Potency | outcome | activity, negative = inhibition
Cc1ccc(Nc2ncncc2-c2nc(-c3ccccc3)no2)c(F)c1 | inconclusive: 1.78 µM [inhibitor, single point] |  | 
COc1ccc(-c2nc(C3CC3)nc3c2CCN([S+](=O)([O-])c2cccc(C(F)(F)F)c2)CC3)cc1 | inconclusive: 14.1 µM [inhibitor, partial curve] |  | 
Cc1ccc(-c2noc([C@@H]3Cc4nc[nH]c4CN3Cc3cccs3)n2)cc1 | inactive |  | 
O=C(CCCc1ccccc1)N1CCCCCC1c1nc(C2CC2)no1 (configuration not stated) | inactive |  | 
Cc1cccc(Cc2c(C)nc3c(-c4ccccc4)c(C)[nH]n3c2=O)c1 | inconclusive: 10 µM [inhibitor, single point] |  | 
CCOC(=O)c1ccccc1NC(=O)Cn1c(N(C)Cc2ccccc2)nc(C)cc1=O | inconclusive: 1.26 µM [inhibitor, full curve, poor fit] |  | 
CC1CCCN(S(=O)(=O)c2ccc3c(c2)CCN3C(=O)CCC(=O)O)C1 (configuration not stated) |  |  | inconclusive: -58.9% [inhibitor] [at 5.79 µM]
O=C(C[C@@H]1CCNC[C@@H]1Cc1cc(-c2ccc(F)cc2)on1)NCc1ccco1 | inconclusive: 31.6 µM [inhibitor, single point] |  | 
Cc1ccccc1S(=O)(=O)N1CCC(c2noc(-c3ccccn3)n2)C1 (configuration not stated) |  | inactive [at 5.79 µM] | 
COc1ccc(-c2nc(CSCC(=O)N3CCN(c4ccc(F)cc4)CC3)c(C)o2)cc1 | inconclusive: 17.8 µM [inhibitor, single point] |  | 
O=C(N[C@@H]1CN(Cc2c[nH]c3ccccc23)C[C@H]1CO)c1ccccc1 | inconclusive: 10 µM [inhibitor, single point] |  | 
Fc1ccc(C2=CC(c3ccc(F)cc3)n3c(nc4ccccc43)N2)cc1 (configuration not stated) | inactive |  | 
Cc1nn(Cc2ccccc2)c(C)c1[C@@H]1C=C[C@@H](NC(=O)NC2CCCCC2)C1 | inactive |  | 
Cn1c(CO)nnc1CC1CCN(C(=O)c2ccc3ccccc3n2)CC1 | inactive |  | 
CC(CNC(=O)c1ccc2nc(Cc3ccccc3)oc2c1)c1ccccc1 (configuration not stated) | inconclusive: 11.2 µM [inhibitor, partial curve, poor fit] |  | 
Cn1cncc1CNC(=O)c1nc(-c2cccc(N3CCOCC3)c2)cc2c1ccn2C | inconclusive: 11.2 µM [inhibitor, single point] |  | 
O=C1CC(c2ccccc2)N(Cc2ccncc2)CCCN(Cc2cccnc2)CCN1 (configuration not stated) | active: 4.47 µM |  | 
CC(C)c1nc2ccc(C(=O)Nc3ccccc3F)cc2o1 | inconclusive: 11.2 µM [inhibitor, single point] |  | 
C[C@@]1(O)CCN(Cc2cccc(OC(F)F)c2)C[C@@H]1O | inactive |  | 
COc1cc(=O)n2c(c1C(=O)Nc1ccc(C(F)(F)F)cc1)CCCC2 | inactive |  | 
O=c1[nH]c(N2CCc3ccccc3C2)nc2c1CCN(Cc1ccncc1)CC2 |  | inactive [at 5.79 µM] | 
COc1ccccc1CNC(=O)CSC1=Nc2ccccc2N=C(c2ccc(F)cc2)C1 | inconclusive: 12.6 µM [inhibitor, single point] |  | 
O=C1Nc2ccccc2CC12CCCN(Cc1ccc(Cl)cc1)C2 (configuration not stated) | inconclusive: 11.2 µM [inhibitor, partial curve] |  | 
CCNc1ncnc2sc3c(c12)CCN(Cc1ccc[nH]1)C3 | active: 1 µM |  | 

SMILES | Potency | outcome | activity, negative = inhibition
COCCc1noc(C2CN(C(=O)COc3ccc(F)cc3)C2)n1 | inactive |  | 
C1=C(c2cc(-c3cccc(N4CCOCC4)c3)cn3cncc23)CCOC1 | inconclusive: 3.98 µM [inhibitor, partial curve, poor fit] |  | 
CN1CCCCCCN(C(=O)c2cccs2)[C@H]2CCC[C@H]2C1=O | inconclusive: 10 µM [inhibitor, partial curve, poor fit] |  | 
Cc1ccc(-c2nc(CC(=O)Nc3ccc4c(c3)C(=O)N3CCC[C@H]3C(=O)N4)cs2)cc1 | inconclusive: 2.24 µM [inhibitor, full curve, poor fit] |  | 
CC(=O)Nc1ccc(CNC[C@H]2Cn3c(-c4ccc(F)cc4)cnc3CO2)cc1 | inactive |  | 
COc1ccc(C2(C(=O)NCC34CCCC=C3NC(=O)CC4)CC2)cc1 (configuration not stated) | inactive |  | 
CCCn1c2ccccc2c2nnc(SCC(=O)Nc3cccc(C(C)=O)c3)nc21 | inactive |  | 
COc1ccccc1-c1cn2c(n1)CO[C@@H](CNCc1cccnc1)C2 | inconclusive: 11.2 µM [inhibitor, single point] |  | 
CCC(Sc1nnc(C)n2c1cc1occc12)C(=O)Nc1ccccc1OC (configuration not stated) | inconclusive: 12.6 µM [inhibitor, single point] |  | 
O=C1N(c2ccccc2)c2ccccc2C12CCN(Cc1cccc3ccccc13)C2 (configuration not stated) | inconclusive: 17.8 µM [inhibitor, single point] |  | 
Cc1ccc(-n2ncc(C(=O)N3CCCCC3)c2C2CCN(C(=O)OC(C)(C)C)CC2)c(C)c1 | inconclusive: 17.8 µM [inhibitor, single point] |  | 
O=C1CC(c2ccccc2)N(C(=O)CNC(=O)c2n[nH]c3ccccc23)CCCCCCN1 (configuration not stated) | active: 10 µM |  | 
O=C(COc1ccccc1)Nc1ccc2nc(SCC(=O)N3CCOCC3)sc2c1 | inactive |  | 
CN(C)c1ccc(CNC(=O)Cn2c(=O)oc3cc(S(=O)(=O)N4CCCCCC4)ccc32)cc1 | inconclusive: 11.2 µM [inhibitor, single point] |  | 
O[C@H]1[C@H](NCc2cnc3ccccc3c2)[C@@H](c2cccnc2)C[C@H]1O | inactive |  | 
COc1ccc(CN2CCC([C@H]3[C@@H](OC)C(=O)N3C(C)C)CC2)cc1CN1CCCC1 | inconclusive: 5.01 µM [inhibitor, partial curve, poor fit] |  | 
O=C1NCc2ccccc2CC12CCN(CC1=CCCCC1)C2 (configuration not stated) | inconclusive: 10 µM [inhibitor, partial curve, poor fit] |  | 
CCCCN1C(=O)C(O)(CC(=O)c2ccc(C(C)(C)C)cc2)c2ccccc21 (configuration not stated) | active: 1.26 µM |  | 
CCOc1ccc(-c2nc3c(c(SCC(=O)N4CCCCC4)n2)Cc2cccc(OC)c2O3)cc1 | inconclusive: 6.31 µM [inhibitor, partial curve, poor fit] |  | 
CCC(c1cccs1)N1C(=O)[C@H]2CN(C(=O)NC)C[C@H]2C1=O (some centres not stated) | inactive |  | 
Cc1ccc2c(c1)N(CCCC(=O)Nc1cccc(C(F)(F)F)c1)C(=O)CO2 | inconclusive: 17.8 µM [inhibitor, single point] |  | 
COc1ncccc1-c1ccc2ncn(Cc3ccccn3)c(=O)c2n1 | inactive |  | 
Cc1ccc(-c2cc(C(=O)NCc3ccccc3Cl)c3ccccc3n2)cc1C | inconclusive: 17.8 µM [inhibitor, single point] |  | 
CN1C[C@H]2CN(Cc3ccc(C(=O)O)cc3)CCN2C1=O | inactive |  | 
